The whole screen tested about 220,000 compounds, of which about 16,000 (7.3%) were called active. Inconclusive means that the source gave no clear call. Such entries were picked first, then a sample of the others. Calls come from the whole dose curve; as a rule, active = well fitted inhibition curve with a large enough effect (not every such curve was filed as active); inconclusive = small, poorly fitted or top-dose-only effect, or another doubt; inactive = no such curve, though single readings can be large or run the other way. Where the call is inconclusive, the potency comes from a doubtful curve fit.
Target: Aldehyde dehydrogenase 1A1 (Homo sapiens) (UniProt P00352)
UniProt P00352, sequence (P00352 whole entry, looked up): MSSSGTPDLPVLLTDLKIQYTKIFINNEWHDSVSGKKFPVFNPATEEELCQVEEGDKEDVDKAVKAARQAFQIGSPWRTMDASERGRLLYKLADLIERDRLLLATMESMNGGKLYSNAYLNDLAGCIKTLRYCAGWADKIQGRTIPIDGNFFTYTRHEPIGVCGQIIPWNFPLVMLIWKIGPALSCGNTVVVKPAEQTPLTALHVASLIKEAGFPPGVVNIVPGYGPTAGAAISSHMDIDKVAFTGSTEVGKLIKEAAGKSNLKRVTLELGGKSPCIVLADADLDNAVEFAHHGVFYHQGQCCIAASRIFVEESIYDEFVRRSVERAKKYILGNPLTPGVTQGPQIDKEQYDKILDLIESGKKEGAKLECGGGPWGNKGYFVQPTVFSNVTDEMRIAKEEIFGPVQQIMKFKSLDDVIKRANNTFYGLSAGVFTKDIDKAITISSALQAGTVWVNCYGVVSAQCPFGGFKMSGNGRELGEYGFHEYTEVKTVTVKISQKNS
Assay: qHTS Assay for Inhibitors of Aldehyde Dehydrogenase 1 (ALDH1A1);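 for activity, negative = inhibition: plate controls were no enzyme wells and a reference inhibitor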
Settings: Purified ALDH1A1, NADH fluorescence, propionaldehyde substrate; series mostly up to 75.3 µM; activity, negative = inhibition: at the top concentration
Potency is the fitted concentration of half-maximal effect; tags give direction and shape of the fitted curve.

Potency, active:
Cc1cccc2cc(CN(CC3CCCO3)C(c3nnnn3Cc3ccco3)C(C)C)c(=O)[nH]c12 (centres undefined) 6.31 µM, COc1ccc(OC)c(-n2c(CN3CCC(C(N)=O)CC3)nc3ccccc3c2=O)c1 20 µM, COc1ccc(CCNC(=O)C(=O)NCc2ccc(C(C)C)cc2)cc1OC 0.794 µM, O=C(/C=C/c1cccc([N+](=O)[O-])c1)NC(=S)Nc1ccc(CN2CCOCC2)cc1 3.16 µM, CC(C)C1N=C2c3ccccc3N=C(SCC(=O)c3ccc(O)c(O)c3)N2C1=O (centres undefined) 0.631 µM, COC(=O)[C@@H]1C[C@H]1[C@@H](NC(=O)Oc1ccc(F)cc1)c1ccccc1 7.94 µM

Potency, inconclusive:
CCc1ccc(-n2c(C)cc(/C=N/NC(=O)OC)c2C)cc1 39.8 µM [inhibitor, single point], COc1ccc(C(=O)N2CCC3(CCCN(c4ccccc4)C3)CC2)cc1 7.94 µM [inhibitor, partial curve], O=C(CCN1C(=O)C2C3C=CC(C3)C2C1=O)NCCN1CCCc2ccccc21 (centres undefined) 28.2 µM [inhibitor, single point], Fc1ccc(C2=CC(c3ccco3)n3ncnc3N2)cc1 (centres undefined) 35.5 µM [inhibitor, partial curve], CCN(CC(=O)Nc1ccc(OC(F)F)cc1)C1CCCCC1 39.8 µM [inhibitor, single point], O=C(NC(=S)NCCC1=CCCCC1)c1ccc(Br)o1 39.8 µM [inhibitor, single point], CCN(CC)c1nc(C#N)cc(-c2ccc(OC)cc2)n1 39.8 µM [inhibitor, single point], CC(=O)N1N=C(c2c(-c3ccccc3)c3cc(C)ccc3[nH]c2=O)CC1c1ccco1 (centres undefined) 22.4 µM [inhibitor, partial curve], CCOc1cc2c3c(c1)C1(C(=O)N3C(C)(C)CC2C)C(C#N)=C(N)N2C(=C1C#N)Nc1ccccc12 (centres undefined) 0.501 µM [inhibitor, full curve], Cn1nc(-c2ccccc2)c2ncc(C(F)(F)F)cc21 28.2 µM [inhibitor, partial curve], O=S(=O)(c1cc(C(F)(F)F)ccc1Cl)N1CCCCCC1 25.1 µM [inhibitor, single point], CCc1nc(N2CCCC2C(=O)O)c2oc3ccccc3c2n1 (centres undefined) 20 µM [inhibitor, partial curve], CCOc1ccc2[nH]c(=O)c(CN(Cc3ccco3)Cc3nnnn3Cc3ccccc3)cc2c1 25.1 µM [inhibitor, partial curve], NC(=O)C1CCN(C(=O)c2ccc(Oc3cc(Cl)cc(Cl)c3)o2)CC1 25.1 µM [inhibitor, single point], CC(=O)c1cccc(NC(=O)CC2SC(N3CCCCC3)=NC2=O)c1 (centres undefined) 28.2 µM [inhibitor, single point], O=C(NCc1ccco1)C1CN(S(=O)(=O)c2ccccc2)CCN1S(=O)(=O)c1ccccc1 (centres undefined) 44.7 µM [inhibitor, single point], COc1ccc(CNC(=O)c2cccc(N(C)C)c2)cc1 37.7 µM [inhibitor, single point], O=C1c2ccccc2C(Nc2ccc(F)c(Cl)c2)N1Cc1ccco1 (centres undefined) 35.5 µM [inhibitor, single point], Cc1ccc(C(=O)ON=C2CCN(c3ccc([N+](=O)[O-])cc3)CC2)cc1 25.1 µM [inhibitor, partial curve], N#Cc1c(N)nc(SCC(=O)OCc2ccccc2)c(C#N)c1-c1ccco1 39.8 µM [inhibitor, single point], Cc1ccc(NC(=O)c2noc3c2CCCCC3)cc1 39.8 µM [inhibitor, single point], NNc1nc(-c2ccccc2Cl)nc2sc3c(c12)CCCC3 11.2 µM [inhibitor, partial curve], Cc1ccc2c(CC(=O)N3CCN(S(=O)(=O)c4ccc5c(c4)OCCO5)CC3)coc2c1 31.6 µM [inhibitor, single point], CCc1nc(-c2ccc(-c3ccc(OC)cc3)nc2OC)no1 25.1 µM [inhibitor, partial curve], CCn1c(O)c(/C=N/N=C2CCCC2)c2ccc(C3=NNC(=O)CC3)cc21 39.8 µM [inhibitor, single point], COc1ccc(CCc2nnc(CCC(=O)NCc3cnc4ccccn34)o2)cc1 28.2 µM [inhibitor, partial curve], CCNc1nc(C)cc(COC)c1C#N 31.6 µM [inhibitor, partial curve], Cc1ccc(S(=O)(=O)NCCOC(=O)Nc2sc(=S)n(C)c2C)cc1 39.8 µM [inhibitor, single point], Cc1cccc(-c2cc(=O)c3cc(C)ccc3o2)c1 31.6 µM [inhibitor, single point], COc1ccc(NC(=O)CCN2C(=O)c3ccccc3S2(=O)=O)cc1 25.1 µM [inhibitor, single point], CC(=O)Nc1ccc(NC(=O)C2CCC(CNS(=O)(=O)c3cccc4nsnc34)CC2)cc1 (centres undefined) 7.08 µM [inhibitor, full curve]

activity, negative = inhibition, inactive:
COC(=O)NC(c1cccc(F)c1)C(C(C)=O)C(=O)OC (centres undefined) 2.7% [at 13.5 µM], CN(C)c1ccc(N2CC(C)(C)C2=O)cc1 -4.86%, O=C(NCc1cccs1)C1CCCN(S(=O)(=O)c2ccc3c(c2)OCO3)C1 (centres undefined) -4.36%, O=C(CCN1C(=O)c2ccccc2C1=O)OCN1C(=O)c2ccccc2C1=O -5.53%, CCc1ccc(C(=O)COc2ccc(NC(C)=O)cc2)cc1 12%, O=C1CN(C(=O)CNC(=O)c2cccc(Cl)c2)c2ccccc2N1 -0.497%, COc1ccc(Cc2n[nH]c(=O)c3ccccc23)cc1OC 7.47%

Reference: PubChem BioAssay AID1030 (National Center for Advancing Translational Sciences (NCATS), 2008)
